Data: the supplement of paper PMC4967469

Legend:
Experiment in all cases: Viability of human cancer cell lines after 72 h of drug (GDSC screen)
Olaparib = compound: O=C(c1cc(Cc2n[nH]c(=O)c3ccccc23)ccc1F)N1CCN(C(=O)C2CC2)CC1 [Olaparib]
Experimental: (§1)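 Human cancer cell lines in 384-well plates, medium with 10% serum, drug for 72 h over a 256-fold dose range (nine 2-fold or five 4-fold steps up to the top dose). Adherent lines were fixed and stained with the nucleic acid dye Syto60, suspension lines read with resazurin; signal relative to control wells, capped at 0 and 100%. One two-parameter sigmoid per drug and line, fitted in a mixed model over all curves with the slope shared within a line.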

BMS-536924 = compound: Cc1cc(N2CCOCC2)cc2[nH]c(-c3c(NC[C@@H](O)c4cccc(Cl)c4)cc[nH]c3=O)nc12 [BMS-536924]
Experimental: as §1

VX-702 = compound: NC(=O)c1ccc(N(C(N)=O)c2c(F)cccc2F)nc1-c1ccc(F)cc1F [VX-702]; conditions: top dose 2 µM; top dose inferred
Experimental: as §1

Wee1 inhibitor 681640 = compound: O=C1NC(=O)c2c1c(-c1ccccc1Cl)cc1[nH]c3ccc(O)cc3c21 [Wee1 inhibitor 681640]; conditions: top dose 2 µM; top dose inferred
Experimental: as §1

Shikonin = compound: CC(C)=CC[C@@H](O)C1=CC(=O)c2c(O)ccc(O)c2C1=O [Shikonin]; conditions: top dose 16 µM; top dose inferred
Experimental: as §1

CGP-082996 (CINK4) = compound: CCNc1cc(NC2CCC(O)CC2)nc(Nc2ccc3c(ccn3Cc3ccccc3)c2)n1 [CGP-082996 (CINK4)]; conditions: top dose 5.12 µM; top dose inferred
Experimental: as §1

SB-525334 = compound: Cc1cccc(-c2[nH]c(C(C)(C)C)nc2-c2ccc3nccnc3c2)n1 [SB-525334]; conditions: top dose 20 µM; top dose inferred
Experimental: as §1

A-770041 = compound: COc1cc(-c2nn([C@H]3CC[C@H](N4CCN(C(C)=O)CC4)CC3)c3ncnc(N)c23)ccc1NC(=O)c1cc2ccccc2n1C [A-770041]; conditions: top dose 5.12 µM; top dose inferred
Experimental: as §1

XMD8-85 = compound: COc1cc(N2CCN(C)CC2)ccc1Nc1ncc2c(n1)N(C)c1ccccc1C(=O)N2C [XMD8-85]; conditions: top dose 8 µM; top dose inferred
Experimental: as §1

BIRB 0796 = compound: Cc1ccc(-n2nc(C(C)(C)C)cc2NC(=O)Nc2ccc(OCCN3CCOCC3)c3ccccc23)cc1 [BIRB 0796]; conditions: top dose 10 µM; top dose inferred
Experimental: as §1

[1] = top dose 5 µM, screen: GDSC drug entry 1017, top dose inferred
[2] = top dose 10 µM, screen: GDSC drug entry 1495
[3] = top dose 4 µM, screen: GDSC drug entry 1091, top dose inferred
[4] = top dose 5.12 µM, screen: GDSC drug entry 62

| Cell Line | AUC (Olaparib; [1]) | IC50 (Olaparib; [1]) [µM] | AUC (Olaparib; [2]) | IC50 (Olaparib; [2]) [µM] | AUC (BMS-536924; [3]) | IC50 (BMS-536924; [3]) [µM] | AUC (BMS-536924; [4]) | IC50 (BMS-536924; [4]) [µM] | AUC (VX-702) | IC50 (VX-702) [µM] | AUC (Wee1 inhibitor 681640) | IC50 (Wee1 inhibitor 681640) [µM] | AUC (Shikonin) | IC50 (Shikonin) [µM] | AUC (CGP-082996 (CINK4)) | IC50 (CGP-082996 (CINK4)) [µM] | AUC (SB-525334) | IC50 (SB-525334) [µM] | AUC (A-770041) | IC50 (A-770041) [µM] | AUC (XMD8-85) | IC50 (XMD8-85) [µM] | AUC (BIRB 0796) | IC50 (BIRB 0796) [µM] |
| --- | --- | --- | --- | --- | --- | --- | --- | --- | --- | --- | --- | --- | --- | --- | --- | --- | --- | --- | --- | --- | --- | --- | --- | --- |
| SUP-HD1 (Hodgkin lymphoma, suspension) | 0.968 | > 5 | 0.958 | > 10 | 0.891 | > 4 | 0.769 | 1.85 | 0.962 | > 2 | 0.96 | > 2 | 0.489 | 0.937 | 0.967 | > 5.12 | 0.932 | > 20 | 0.987 | > 5.12 | 0.938 | > 8 | 0.988 | > 10 |
| SUP-M2 (anaplastic large cell lymphoma, suspension) | 0.893 | 3.48 | 0.841 | 4.7 | 0.67 | 0.656 | 0.898 | 3.72 | 0.994 | > 2 | 0.992 | > 2 | 0.665 | 2.55 | 0.909 | 4.11 | 0.992 | > 20 | 0.988 | > 5.12 | 0.988 | > 8 | 0.994 | > 10 |
| SUP-T1 (T-cell lymphoblastic leukaemia, suspension) | 0.964 | > 5 | 0.969 | > 10 | 0.98 | > 4 | 0.976 | > 5.12 | 0.977 | > 2 | 0.977 | > 2 | 0.591 | 1.74 | 0.904 | > 5.12 | 0.978 | > 20 | 0.981 | > 5.12 | 0.705 | 1.78 | 0.913 | > 10 |
| SW954 (urogenital system, adherent) | 0.967 | > 5 | 0.881 | > 10 | – | – | 0.692 | 1.12 | 0.983 | > 2 | 0.608 | 0.248 | 0.449 | 0.725 | 0.898 | > 5.12 | 0.946 | > 20 | 0.756 | 1.77 | 0.819 | 4.61 | 0.927 | > 10 |
| SW962 (urogenital system, adherent) | 0.979 | > 5 | 0.944 | > 10 | 0.87 | > 4 | 0.695 | 1.31 | 0.975 | > 2 | 0.979 | > 2 | 0.468 | 0.803 | 0.845 | > 5.12 | 0.927 | > 20 | 0.874 | > 5.12 | 0.876 | > 8 | 0.974 | > 10 |
| TE-6 (oesophagus, adherent) | 0.965 | > 5 | 0.939 | > 10 | 0.974 | > 4 | 0.944 | > 5.12 | 0.986 | > 2 | 0.968 | > 2 | 0.681 | 3.51 | 0.943 | > 5.12 | 0.951 | > 20 | 0.908 | > 5.12 | 0.908 | > 8 | 0.96 | > 10 |
| TE-15 (oesophagus, suspension) | 0.985 | > 5 | 0.955 | > 10 | 0.979 | > 4 | 0.636 | 0.803 | 0.984 | > 2 | 0.938 | > 2 | 0.357 | 0.38 | 0.853 | 4.81 | 0.885 | > 20 | 0.503 | 0.327 | 0.914 | > 8 | 0.984 | > 10 |
| U-698-M (B-cell leukaemia, suspension) | 0.987 | > 5 | 0.975 | > 10 | 0.977 | > 4 | 0.933 | > 5.12 | 0.983 | > 2 | 0.905 | > 2 | 0.285 | 0.246 | 0.919 | > 5.12 | 0.879 | > 20 | 0.971 | > 5.12 | 0.961 | > 8 | 0.966 | > 10 |
| UACC-257 (melanoma, adherent) | 0.978 | > 5 | 0.926 | > 10 | 0.914 | > 4 | 0.812 | 3.63 | 0.979 | > 2 | 0.982 | > 2 | 0.641 | 2.71 | 0.874 | > 5.12 | 0.657 | 3.81 | 0.948 | > 5.12 | 0.811 | 5.57 | 0.957 | > 10 |
| WSU-NHL (lymphoid neoplasm, suspension) | 0.987 | > 5 | 0.968 | > 10 | 0.97 | > 4 | 0.974 | > 5.12 | 0.966 | > 2 | 0.979 | > 2 | 0.316 | 0.328 | 0.982 | > 5.12 | 0.973 | > 20 | 0.987 | > 5.12 | 0.904 | > 8 | 0.965 | > 10 |
| YT (lymphoid neoplasm, suspension) | 0.989 | > 5 | 0.975 | > 10 | 0.966 | > 4 | 0.992 | > 5.12 | 0.955 | > 2 | 0.992 | > 2 | 0.339 | – | 0.937 | > 5.12 | 0.971 | > 20 | 0.992 | > 5.12 | 0.793 | 3.04 | 0.981 | > 10 |

By IC50 is meant the dose at which the fit gives 50% viability; where the fit passes the top or lowest dose, that dose stands as a limit. AUC is the area under the same curve over the 256-fold range up to the top dose, as a fraction; it is 1 without any effect and falls as sensitivity rises. An inferred top dose comes from the curve model; the source does not state it. For part of these data: Drugs with an entry number were screened twice under separate entries, and the two screens often disagree.
